{
  "source": "PubChem BioAssay AID1347417",
  "about": "(National Center for Advancing Translational Sciences (NCATS), 2020)",
  "note": "Hit rate of the full screen: of about 120,000 compounds, about 5,300 (4.4%) were called active. Inconclusive means that the source gave no clear call. Such entries were picked first, then a sample of the others. Calls follow the shape of the dose curve; as a rule, active = well fitted inhibition curve with a large enough effect; inconclusive = small, poorly fitted or top-dose-only effect; inactive = no such curve, though single readings can be large or run the other way. Where the call is inconclusive, the potency comes from a doubtful curve fit. Potency is read from the fitted curve at half-maximal effect; tags tell the direction and shape of the fitted curve.",
  "data": [
    {"test": "qHTS Primary assay for Inhibitors of Plasmodium falciparum Dd2 growth in vitro; also: nearly all actives have a fitted effect of over 65% in size;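 as to activity, negative = inhibition: plate controls were DMSO vehicle for no effect and reference drug for full effect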", "conditions": "P. falciparum Dd2 growth, SYBR Green, 72 h; activity, negative = inhibition: at 28.9 µM (top of the series) unless noted; series mostly up to 28.9 µM", "how_it_was_run": "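Infected erythrocytes (Dd2, 0.3% parasitemia, 2.5% hematocrit final) are added to compound in RPMI-1640/Albumax II medium, grown 72 h at 37C in low oxygen, then lysed with saponin/Triton-X containing SYBR Green and read by fluorescence.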", "values": [
      {"compound": "O=C(Nc1ccccc1)[C@H]1O[C@H](CCN2CCN(c3ccc(F)cc3)CC2)CC[C@@H]1O", "Potency": "inconclusive: 1 µM [inhibitor, full curve, poor fit]"},
      {"compound": "CC(C)(O)CCc1cccc(C(=O)N2CCC(CCn3cccn3)CC2)c1", "activity, negative = inhibition": "inactive: -9.31%"},
      {"compound": "COc1ccc(-c2cnc([C@@H]3COCCN3Cc3csnn3)[nH]2)cc1", "activity, negative = inhibition": "inactive: -20% [at 44.1 µM]"},
      {"compound": "COc1ccc(-c2noc([C@@H]3C[C@@H](O)CN3Cc3cccs3)n2)cc1", "Potency": "inconclusive: 11.2 µM [inhibitor, single point]"},
      {"compound": "O=C1CCN(C(=O)c2ccco2)CCCC(c2nc(-c3ccccc3)no2)CCN1", "note": "(stereo not drawn)", "Potency": "inconclusive: 6.31 µM [inhibitor, partial curve]"},
      {"compound": "COCCN(C)C(=O)c1cn2cc(-c3cccc(Cl)c3)n(CC3CC3)c(=O)c2n1", "Potency": "inconclusive: 8.91 µM [inhibitor, partial curve]"},
      {"compound": "Cc1ccccc1CN1CCc2c(n(Cc3ccccc3)n(-c3ccccc3)c2=O)C1", "Potency": "inconclusive: 10 µM [inhibitor, partial curve, poor fit]"},
      {"compound": "COc1ccc(CNc2ncnc3c2c(-c2ccccc2)cn3-c2ccc(C)c(Cl)c2)cc1", "Potency": "inconclusive: 17.8 µM [inhibitor, single point]"},
      {"compound": "CCC(=O)N1CCCC(n2c(C)cnc2-c2ccncc2)C1", "note": "(stereo not drawn)", "activity, negative = inhibition": "inactive: 15.8%"},
      {"compound": "CCC1(O)CCC12CCN(C(=O)C1CC1)CC2", "note": "(stereo not drawn)", "activity, negative = inhibition": "inactive: -2.46%"},
      {"compound": "CC1=C[C@@H](CC#N)[C@H](C(C)C)C[C@H]1CC(=O)N(C)Cc1cccnc1", "Potency": "inconclusive: 31.6 µM [inhibitor, single point]"},
      {"compound": "CC(C)c1ccc(CC(=O)N2CCCc3ncc(C(=O)N4CCCC[C@@H]4Cc4ccccc4)cc32)cc1", "Potency": "inconclusive: 5.62 µM [inhibitor, partial curve, poor fit]"},
      {"compound": "Cc1ccc(C)c(C(=O)N2CCC(Oc3nccnc3N(C)C)C2)c1", "note": "(stereo not drawn)", "Potency": "inconclusive: 17.8 µM [inhibitor, single point]"},
      {"compound": "CCOC(=O)c1cccc(NC(=O)C2=C(C)C(=O)OC23CCCCC3)c1", "Potency": "inconclusive: 0.0112 µM [inhibitor, full curve, poor fit]"},
      {"compound": "Cc1ccc(C)c(Cn2c(SCC(=O)NCc3ccccc3)nc3ccccc32)c1", "Potency": "inconclusive: 17.8 µM [inhibitor, single point]"},
      {"compound": "CC(C)NC(=O)C[C@@H]1CCNC[C@@H]1Cc1cc(-c2ccccc2)on1", "outcome": "inactive [at 44.1 µM]"},
      {"compound": "CCn1ncc(N2CCCC(CC(=O)Nc3ccc(F)c(F)c3)C2)cc1=O", "note": "(stereo not drawn)", "activity, negative = inhibition": "inactive: -3.19%"},
      {"compound": "Cc1ccc(C2=NC3(CCN(C(=O)COc4ccccc4)CC3)ON2)cc1", "Potency": "inconclusive: 3.98 µM [inhibitor, partial curve, poor fit]"},
      {"compound": "Cc1ccc(S(=O)(=O)NCCc2nnc3ccc(SCC(=O)Nc4c(C)cc(C)cc4C)nn23)cc1", "Potency": "inconclusive: 12.6 µM [inhibitor, single point]"},
      {"compound": "COc1cccc(CN2Cc3cc(NC(=O)c4ccc([N+](=O)[O-])cc4)ccc3OCC2=O)c1OC", "activity, negative = inhibition": "inactive: -5.81%"},
      {"compound": "CCCS(=O)(=O)N1CC(Oc2ccccc2-c2nc(C3CC3)no2)C1", "Potency": "inconclusive: 10 µM [inhibitor, single point]"},
      {"compound": "CCc1ccc(C(=O)c2cn(CC(=O)Nc3ccc4c(c3)OCO4)c3ccc(Cl)cc3c2=O)cc1", "Potency": "inconclusive: 3.16 µM [inhibitor, full curve, poor fit]"},
      {"compound": "CCOc1ccc2c(c1)NC(c1ccc(OCC)c(OCC)c1)=NC(c1ccc(F)cc1)=N2", "Potency": "active: 12.6 µM"},
      {"compound": "O=C1CCC2(CCN1CC1CC1)CCN(C(=O)c1ccc3c(c1)OCO3)CC2", "Potency": "inconclusive: 3.98 µM [inhibitor, single point]"},
      {"compound": "CC1=Nc2cc(C(=O)NC(C)c3ccc4c(c3)OCCO4)ccc2Sc2ccc(Cl)cc21", "note": "(stereo not drawn)", "Potency": "inconclusive: 8.91 µM [inhibitor, partial curve]"},
      {"compound": "Cn1cc(CN2CCOC[C@H]2c2ncc(C(C)(C)C)[nH]2)c2ccccc21", "Potency": "active: 10 µM"},
      {"compound": "COc1ccccc1C(=O)NC(=O)Nc1ccc(-c2cc(C(F)(F)F)nn2-c2ccccc2)cc1", "activity, negative = inhibition": "inactive: -28.4%"},
      {"compound": "CCn1ccc2oc(C)c(C(=O)NCc3ccccc3Cl)c2c1=O", "activity, negative = inhibition": "inactive: -7.01%"},
      {"compound": "C#C[C@H]1CN2CC[C@H]1C[C@@H]2CNCc1ccc(C(F)(F)F)cc1", "Potency": "inconclusive: 4.47 µM [inhibitor, single point]"},
      {"compound": "O=S(=O)(c1ccc(Br)cc1)N1CCC(n2cnnc2C2CC2)CC1", "activity, negative = inhibition": "inactive: 0.0909%"},
      {"compound": "CC(=O)N(C1CC1)C1CCOC2(CCN(C(=O)c3sc(C)nc3C)CC2)C1", "note": "(stereo not drawn)", "activity, negative = inhibition": "inactive: 28.2%"},
      {"compound": "COc1ccc2ncc3c(-c4ccc(C)c(C)c4)nn(CC(=O)Nc4ccccc4)c3c2c1", "Potency": "inconclusive: 17.8 µM [inhibitor, single point]"},
      {"compound": "CCc1cc(N2CCOCC(O)(CN3CCCC3)C2)nc(N2CCCC2)n1", "note": "(stereo not drawn)", "Potency": "active: 5.62 µM"},
      {"compound": "O=C(CC1CC1)N1CCC(Oc2cnc3c(ccn3-c3cncnc3)c2)CC1", "outcome": "inactive [at 44.1 µM]"},
      {"compound": "CCCCn1c(=O)c2oc3ccccc3c2n(Cc2ccc(C)cc2)c1=O", "activity, negative = inhibition": "inactive: -1.04%"},
      {"compound": "COc1ccc(S(=O)(=O)N2CCC(Oc3ncccc3C(=O)N3CCOCC3)C2)cc1", "note": "(stereo not drawn)", "Potency": "inconclusive: 0.447 µM [inhibitor, full curve, poor fit]"},
      {"compound": "COc1cccc(S(=O)(=O)N2CCC3(C2)C(=O)Nc2ccccc23)c1", "note": "(stereo not drawn)", "activity, negative = inhibition": "inconclusive: -55.8% [inhibitor]"},
      {"compound": "CC(=O)N1CCc2cc(Br)cc(S(=O)(=O)CCC(=O)NCc3ccc(F)cc3)c21", "Potency": "inconclusive: 12.6 µM [inhibitor, single point]"},
      {"compound": "CC(C)C(=O)N1Cc2ccccc2CC2(CCCCN2CC2CCOCC2)C1", "note": "(stereo not drawn)", "Potency": "inconclusive: 12.6 µM [inhibitor, partial curve, poor fit]"},
      {"compound": "COc1ccccc1CN1CCC(CNC(=O)c2cnn(-c3cccc(Cl)c3)c2C2CCN(C(=O)OC(C)(C)C)CC2)CC1", "Potency": "active: 1.41 µM"},
      {"compound": "COc1ccccc1C(=O)NC[C@@H]1C=C(C)[C@H](Cc2nc3ccccc3[nH]2)C[C@H]1C(C)C", "Potency": "inconclusive: 5.01 µM [inhibitor, single point]"},
      {"compound": "O=C(CCc1ccc(O)cc1)N1CCN(Cc2ccccc2)CC(O)C1", "note": "(stereo not drawn)", "Potency": "inconclusive: 3.55 µM [inhibitor, partial curve, poor fit]"},
      {"compound": "CN(Cc1cc(C[C@@H]2C[C@H](NCc3ncc[nH]3)C2(C)C)no1)c1ccccc1", "outcome": "inactive [at 44.1 µM]"},
      {"compound": "O=C([C@@H]1C[C@H](F)CN1C(=O)c1cccc(F)c1)N1CCCCC1", "activity, negative = inhibition": "inactive: -19.8%"},
      {"compound": "O=C1CCCN1CCCN1C(=O)[C@H]2CN(Cc3ccccc3OC(F)(F)F)C[C@H]2C1=O", "Potency": "inconclusive: 2.82 µM [inhibitor, partial curve, poor fit]"},
      {"compound": "O=C(CCC1CCN(C(=O)c2ccccc2)CC1)NCCCN1CCOCC1", "activity, negative = inhibition": "inactive: -9.46%"},
      {"compound": "COc1cccc(C(=O)N2CCC3(CC2)CC(OCC2CC2)CCO3)c1", "note": "(stereo not drawn)", "outcome": "inactive"},
      {"compound": "CCCn1c(C)cnc1CC1CCN(C(=O)c2ccccn2)C1", "note": "(stereo not drawn)", "activity, negative = inhibition": "inactive: 18.7%"},
      {"compound": "Cc1oc(C(O)c2ccccc2F)nc1C(=O)Nc1ccc2[nH]c(=O)[nH]c2c1", "note": "(stereo not drawn)", "Potency": "inconclusive: 22.4 µM [inhibitor, partial curve, poor fit]"},
      {"compound": "O=C(c1cc[n+]([O-])cc1)N1CCC(C2CCN(Cc3cccnc3)CC2)C1", "note": "(stereo not drawn)", "activity, negative = inhibition": "inactive: -4.19%"},
      {"compound": "Cc1cnc(C(=O)NC2CC(=O)N(Cc3cccc4ccccc34)C2)cn1", "note": "(stereo not drawn)", "Potency": "inconclusive: 17.8 µM [inhibitor, single point]"},
      {"compound": "Cc1cn2nc(C(=O)NCc3ccccc3F)cc2c(N2CCCC2)n1", "Potency": "inconclusive: 10 µM [inhibitor, single point]"},
      {"compound": "CCOC(=O)c1cc2c(=O)n3ccccc3nc2n(CCOC)c1=NC(=O)c1c(-c2c(F)cccc2Cl)noc1C", "Potency": "inconclusive: 10 µM [inhibitor, single point]"},
      {"compound": "N#Cc1cccc(-c2ccnc(N[C@H]3CO[C@H]4[C@@H]3OC[C@H]4OC(=O)Nc3ccc(Oc4ccccc4)cc3)n2)c1", "Potency": "inconclusive: 1 µM [inhibitor, partial curve, poor fit]"},
      {"compound": "O=C(NC1CCCCC1)[C@@H]1Cc2nc[nH]c2CN1C(=O)C1CC1", "activity, negative = inhibition": "inactive: 51.7% [at 44.1 µM]"},
      {"compound": "COCCNc1nc(-c2c(C)noc2C)cc2cc(CO)oc12", "activity, negative = inhibition": "inactive: -10% [at 44.1 µM]"},
      {"compound": "CCCc1noc(-c2cccn3c(CNC(=O)c4ccc(OC)cc4C)nnc23)n1", "Potency": "inconclusive: 1.26 µM [inhibitor, partial curve]"},
      {"compound": "O=C(NCCc1cccs1)c1cccc2c1CCN2C(=O)Nc1ccc(F)cc1", "Potency": "inconclusive: 12.6 µM [inhibitor, partial curve, poor fit]"},
      {"compound": "O=C(NCC1CC1)c1nc2c(o1)CCN(Cc1cccs1)CC2", "Potency": "inconclusive: 12.6 µM [inhibitor, single point]"},
      {"compound": "Cc1ccc(C(=O)NC[C@H]2C[C@@H]3CCN2C[C@@H]3c2cc(-c3ccco3)nc(C)n2)cc1", "Potency": "active: 3.55 µM"},
      {"compound": "O=C(c1ccc(Cl)cc1)N1CCC(n2cc(-c3ccc(OC(F)F)cc3)[nH]c2=O)CC1", "Potency": "inconclusive: 8.91 µM [inhibitor, single point]"},
      {"compound": "O=C(Cn1ccn2nc3c(c2c1=O)CCCC3)N1CCc2ccccc21", "outcome": "inactive"},
      {"compound": "CN(C)C(=O)c1cc2c(s1)CCC(C(=O)NCc1ccncc1)C2", "note": "(stereo not drawn)", "activity, negative = inhibition": "inactive: 13.6%"},
      {"compound": "CC(C(=O)NCCc1nc2ccccc2n1C)C1CCOCC1", "note": "(stereo not drawn)", "outcome": "inactive"},
      {"compound": "O=C(Cc1c[nH]c2ncc(-c3cccc(F)c3)cc12)NCc1cccnc1", "Potency": "inconclusive: 2.82 µM [inhibitor, partial curve]"},
      {"compound": "Cc1cn2nc(C(=O)Nc3ccccc3F)cc2c(N(C)Cc2ccccc2)n1", "Potency": "active: 7.94 µM"},
      {"compound": "COc1ccc(CCNC(=O)c2cnc3sc(N4CCCCCC4)nn3c2=O)cc1", "Potency": "inconclusive: 10 µM [inhibitor, single point]"},
      {"compound": "Cc1nn(-c2ccc(C(C)C)cc2)c(C)c1[C@@H]1C=C[C@@H](NC(=O)NC2CCCCC2)C1", "Potency": "active: 10 µM"}
    ]}
  ]
}
